According to the supplement of paper PMC11741623:
The list shows a part of the results. Interaction screen of human proteins with wild-type SARS-CoV-2 proteins by split-DHFR complementation in yeast, 1 µg/mL methotrexate. Value = fitness of the pair (three or more lineages) minus that of the viral protein without a human partner, on a scale set by negative (0) and fused positive (1) controls, mean of up to three cultures; higher = more likely to interact. Active = false discovery rate below 0.05 (one-sided t-test) in at least one culture. Nearly all pairs are not hits, and differences among them are mostly noise (correlation between cultures about 0.3); most hits were seen in one culture only. Human sequences are the Swiss-Prot entries looked up by gene name; the clone may be another isoform. NSP2 values were corrected by the authors for a growth advantage. Listed are human proteins with a hit and a random twelfth of the others.

How the values were obtained:
Assay in all cases: yeast fitness gain over the viral ORF with no human partner (scaled fitness); higher = more likely to interact
SARS-CoV-2 M = molecular target: SARS-CoV-2 M
Procedure: (§1)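 Split mouse DHFR complementation in pooled diploid yeast: human ORFeome clones carry one fragment and viral ORFs the other; barcoded lineages compete in 1 µg/mL methotrexate and fitness is read by barcode sequencing in up to three cultures.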

SARS-CoV-2 ORF6 = molecular target: SARS-CoV-2 ORF6
Procedure: as §1

SARS-CoV-2 NSP1 = molecular target: SARS-CoV-2 NSP1
Procedure: as §1

SARS-CoV-2 NSP10 = molecular target: SARS-CoV-2 NSP10
Procedure: as §1

SARS-CoV-2 NSP12 = molecular target: SARS-CoV-2 NSP12
Procedure: as §1

SARS-CoV-2 NSP13 = molecular target: SARS-CoV-2 NSP13
Procedure: as §1

SARS-CoV-2 NSP15 = molecular target: SARS-CoV-2 NSP15
Procedure: as §1

SARS-CoV-2 NSP16 = molecular target: SARS-CoV-2 NSP16
Procedure: as §1

SARS-CoV-2 NSP2 = molecular target: SARS-CoV-2 NSP2
Procedure: as §1

SARS-CoV-2 NSP5 = molecular target: SARS-CoV-2 NSP5
Procedure: as §1

SARS-CoV-2 NSP6 = molecular target: SARS-CoV-2 NSP6
Procedure: as §1

SARS-CoV-2 NSP7 = molecular target: SARS-CoV-2 NSP7
Procedure: as §1

SARS-CoV-2 NSP9 = molecular target: SARS-CoV-2 NSP9
Procedure: as §1

SARS-CoV-2 ORF10 = molecular target: SARS-CoV-2 ORF10
Procedure: as §1

SARS-CoV-2 ORF3B = molecular target: SARS-CoV-2 ORF3B
Procedure: as §1

SARS-CoV-2 ORF7A = molecular target: SARS-CoV-2 ORF7A
Procedure: as §1

SARS-CoV-2 ORF7B = molecular target: SARS-CoV-2 ORF7B
Procedure: as §1

SARS-CoV-2 ORF8 = molecular target: SARS-CoV-2 ORF8
Procedure: as §1

SARS-CoV-2 ORF9B = molecular target: SARS-CoV-2 ORF9B
Procedure: as §1

SARS-CoV-2 S = molecular target: SARS-CoV-2 S
Procedure: as §1

[1] = molecular target: SARS-CoV-2 ORF9Bwu (the 73-codon ORF)
Procedure: as §1

Measured: yeast fitness gain

B1: SAT2, Q96F10 (protein)
chain: MASVRIREAKEGDCGDILRLIRELAEFEKLSDQVKISEEALRADGFGDNPFYHCLVAEILPAPGKLLGPCVVGYGIYYFIYSTWKGRTIYLEDIYVMPEYRGQGIGSKIIKKVAEVALDKGCSQFRLAVLDWNQRAMDLYKALGAQDLTEAEGWHFFCFQGEATRKLAGK
inactive: SARS-CoV-2 M -0.142 | SARS-CoV-2 ORF6 = 0.126

B2: PRRG4, Q9BZD6 (protein)
chain: MFTLLVLLSQLPTVTLGFPHCARGPKASKHAGEEVFTSKEEANFFIHRRLLYNRFDLELFTPGNLERECNEELCNYEEAREIFVDEDKTIAFWQEYSAKGPTTKSDGNREKIDVMGLLTGLIAAGVFLVIFGLLGYYLCITKCNRLQHPCSSAVYERGRHTPSIIFRRPEEAALSPLPPSVEDAGLPSYEQAVALTRKHSVSPPPPYPGHTKGFRVFKKSMSLPSH
inactive: SARS-CoV-2 M 0.0635 | SARS-CoV-2 NSP1 = 0.0385 | SARS-CoV-2 NSP10 = 0.0494 | SARS-CoV-2 NSP12 = -0.025 | SARS-CoV-2 NSP13 = -0.0203 | SARS-CoV-2 NSP15 = -0.0468 | SARS-CoV-2 NSP16 = -0.196 | SARS-CoV-2 NSP2 = -0.219 | SARS-CoV-2 NSP5 = 0.0839 | SARS-CoV-2 NSP6 = -0.0606 | SARS-CoV-2 NSP7 = -0.0809 | SARS-CoV-2 NSP9 = -0.111 | SARS-CoV-2 ORF10 = -0.0871 | SARS-CoV-2 ORF3B 0.00938 | SARS-CoV-2 ORF6 = -0.0409 | SARS-CoV-2 ORF7A 0.0487 | SARS-CoV-2 ORF7B 0.0518 | SARS-CoV-2 ORF8 = -0.07 | SARS-CoV-2 ORF9B -0.0107 | SARS-CoV-2 S -0.166

B3: RND2, P52198 (protein)
chain: MEGQSGRCKIVVVGDAECGKTALLQVFAKDAYPGSYVPTVFENYTASFEIDKRRIELNMWDTSGSSYYDNVRPLAYPDSDAVLICFDISRPETLDSVLKKWQGETQEFCPNAKVVLVGCKLDMRTDLATLRELSKQRLIPVTHEQGTVLAKQVGAVSYVECSSRSSERSVRDVFHVATVASLGRGHRQLRRTDSRRGMQRSAQLSGRPDRGNEGEIHKDRAKSCNLM
inactive: SARS-CoV-2 M 0.0645 | SARS-CoV-2 NSP1 = -0.0255 | SARS-CoV-2 NSP10 = -0.124 | SARS-CoV-2 NSP12 = -0.0472 | SARS-CoV-2 NSP13 = -0.187 | SARS-CoV-2 NSP2 = -0.0301 | SARS-CoV-2 NSP5 = 0.0819 | SARS-CoV-2 NSP7 = 0.044 | SARS-CoV-2 NSP9 = -0.064 | SARS-CoV-2 ORF10 = -0.063 | SARS-CoV-2 ORF3B -0.065 | SARS-CoV-2 ORF6 = -0.0117 | SARS-CoV-2 ORF7A -0.0465 | SARS-CoV-2 ORF7B -0.217 | SARS-CoV-2 ORF8 = 0.0528 | SARS-CoV-2 ORF9B -0.0573 | [1] -0.0233 | SARS-CoV-2 S -0.0592

B4: SATB2, Q9UPW6 (protein)
chain: MERRSESPCLRDSPDRRSGSPDVKGPPPVKVARLEQNGSPMGARGRPNGAVAKAVGGLMIPVFCVVEQLDGSLEYDNREEHAEFVLVRKDVLFSQLVETALLALGYSHSSAAQAQGIIKLGRWNPLPLSYVTDAPDATVADMLQDVYHVVTLKIQLQSCSKLEDLPAEQWNHATVRNALKELLKEMNQSTLAKECPLSQSMISSIVNSTYYANVSATKCQEFGRWYKKYKKIKVERVERENLSDYCVLGQRPMHLPNMNQLASLGKTNEQSPHSQIHHSTPIRNQVPALQPIMSPGLLSPQLSPQLVRQQIAMAHLINQQIAVSRLLAHQHPQAINQQFLNHPPIPRAVKPEPTNSSVEVSPDIYQQVRDELKRASVSQAVFARVAFNRTQGLLSEILRKEEDPRTASQSLLVNLRAMQNFLNLPEVERDRIYQDERERSMNPNVSMVSSASSSPSSSRTPQAKTSTPTTDLPIKVDGANINITAAIYDEIQQEMKRAKVSQALFAKVAANKSQGWLCELLRWKENPSPENRTLWENLCTIRRFLNLPQHERDVIYEEESRHHHSERMQHVVQLPPEPVQVLHRQQSQPAKESSPPREEAPPPPPPTEDSCAKKPRSRTKISLEALGILQSFIHDVGLYPDQEAIHTLSAQLDLPKHTIIKFFQNQRYHVKHHGKLKEHLGSAVDVAEYKDEELLTESEENDSEEGSEEMYKVEAEEENADKSKAAPAEIDQR
inactive: SARS-CoV-2 M 0.151 | SARS-CoV-2 NSP1 = -0.00807 | SARS-CoV-2 NSP12 = -0.0451 | SARS-CoV-2 NSP13 = 0.00268 | SARS-CoV-2 NSP2 = -0.16 | SARS-CoV-2 NSP5 = -0.00105 | SARS-CoV-2 NSP7 = 0.0149 | SARS-CoV-2 ORF6 = 0.0697 | SARS-CoV-2 S 0.086
